# Source: the supplement of paper PMC7826260
# This is one part of the list. The data describe in vitro nicking of single-stranded DNA by Rep domains (3 µM enzyme, 1 h, 37 °C); shown is the middle of each 90-letter strand. The score is log2 (uncut reads / reads without enzyme); strong cutting gives strongly negative numbers. There is no active / inactive call. Reads are scaled to the total; uncut strands gain when others are lost, and binding without cutting may add a little.
# Experiments:
# Assay in all cases: uncleaved DNA left, log2 of reads against the no-enzyme library (log2 ratio); higher = less cleavage (more negative = more Rep cleavage of the k-mer); sequences stand for … in CTCGTCCG…ACCGGAGA
# [1] = tested on: T1, Rep nickase domain of Muscovy duck circovirus
# T1 sequence (Rep 1-111, printed without the tag): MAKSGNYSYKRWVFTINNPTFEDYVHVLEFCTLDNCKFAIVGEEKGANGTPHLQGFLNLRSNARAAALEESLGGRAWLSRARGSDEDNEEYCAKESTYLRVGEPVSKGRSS
# Method: (§1)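 A pool of 90-nt single-stranded DNAs with seven random bases just before the constant AC of the nick site (name = the seven bases) was cut by 3 µM recombinant His6-SUMO-tagged Rep nickase domain (300 nM DNA, 50 mM HEPES pH 8.0, 50 mM NaCl, 1 mM MnCl2, 1 h, 37 °C, three replicates). Uncut DNA was amplified and sequenced.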
# [2] = tested on: T2, Rep nickase domain of banana bunchy top virus
# T2 sequence (Rep 1-94, printed without the tag): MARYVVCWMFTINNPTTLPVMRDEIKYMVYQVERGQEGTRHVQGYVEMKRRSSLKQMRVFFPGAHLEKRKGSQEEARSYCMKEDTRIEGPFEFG
# Method: as §1
# [3] = tested on: T3, Rep nickase domain of cabbage leaf curl virus
# T3 sequence (Rep 1-116, printed without the tag): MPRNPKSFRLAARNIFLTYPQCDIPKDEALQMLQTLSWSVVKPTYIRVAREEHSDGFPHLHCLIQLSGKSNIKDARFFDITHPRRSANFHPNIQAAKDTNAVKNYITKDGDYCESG
# Method: as §1
# [4] = tested on: T4, Rep nickase domain of chickpea chlorotic dwarf virus
# T4 sequence (Rep 1-124, printed without the tag): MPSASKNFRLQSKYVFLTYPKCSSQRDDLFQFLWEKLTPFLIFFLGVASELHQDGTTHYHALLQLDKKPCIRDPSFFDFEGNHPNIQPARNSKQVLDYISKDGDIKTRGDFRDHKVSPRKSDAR
# Method: as §1
# [5] = tested on: T5, Rep nickase domain of faba bean necrotic yellows virus
# T5 sequence (Rep 1-98, printed without the tag): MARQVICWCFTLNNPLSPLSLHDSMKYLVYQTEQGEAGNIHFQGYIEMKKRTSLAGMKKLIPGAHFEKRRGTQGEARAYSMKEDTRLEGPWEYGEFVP
# Method: as §1
# [6] = tested on: T6, Rep nickase domain of maize striate mosaic virus
# T6 sequence (Rep 1-117, printed without the tag): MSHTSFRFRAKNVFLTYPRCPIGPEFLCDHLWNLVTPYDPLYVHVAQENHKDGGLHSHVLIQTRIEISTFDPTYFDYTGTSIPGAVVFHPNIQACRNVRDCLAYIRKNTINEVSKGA
# Method: as §1
# [7] = tested on: T7, Rep nickase domain of porcine circovirus 2
# T7 sequence (Rep 2-116, printed without the tag): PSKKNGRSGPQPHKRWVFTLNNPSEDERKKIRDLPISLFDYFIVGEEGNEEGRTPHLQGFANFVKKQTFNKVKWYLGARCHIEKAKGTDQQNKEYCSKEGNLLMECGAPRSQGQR
# Method: as §1
# [8] = tested on: T8, Rep nickase domain of tomato golden mosaic virus
# T8 sequence (Rep 1-124, printed without the tag): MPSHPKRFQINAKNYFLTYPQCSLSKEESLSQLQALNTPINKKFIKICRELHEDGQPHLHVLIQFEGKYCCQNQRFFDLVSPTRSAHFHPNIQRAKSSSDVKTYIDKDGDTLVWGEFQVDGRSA
# Method: as §1
# [9] = tested on: T9, Rep nickase domain of tomato yellow leaf curl virus
# T9 sequence (Rep 1-136, printed without the tag): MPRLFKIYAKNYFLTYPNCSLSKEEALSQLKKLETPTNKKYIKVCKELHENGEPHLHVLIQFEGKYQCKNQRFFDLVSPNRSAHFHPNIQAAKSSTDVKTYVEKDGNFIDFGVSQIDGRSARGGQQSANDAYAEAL
# Method: as §1
# [10] = tested on: T10, Rep nickase domain of wheat dwarf virus
# T10 sequence (Rep 1-137, printed without the tag): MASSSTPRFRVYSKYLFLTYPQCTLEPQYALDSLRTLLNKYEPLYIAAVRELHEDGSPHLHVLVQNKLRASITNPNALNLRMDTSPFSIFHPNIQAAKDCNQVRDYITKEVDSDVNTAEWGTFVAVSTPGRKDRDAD
# Method: as §1
Sequence,uncleaved DNA left (log2) [1],uncleaved DNA left (log2) [2],uncleaved DNA left (log2) [3],uncleaved DNA left (log2) [4],uncleaved DNA left (log2) [5],uncleaved DNA left (log2) [6],uncleaved DNA left (log2) [7],uncleaved DNA left (log2) [8],uncleaved DNA left (log2) [9],uncleaved DNA left (log2) [10]
CAAGAAA,0.044,-0.0747,0.119,-0.305,0.0256,-0.472,0.116,0.00808,-0.0385,0.0113
TTATAGC,0.104,-0.00899,-0.414,-0.558,0.0494,-1.1,0.172,-0.0604,0.0366,-0.105
GGCGCTA,0.00197,-0.00539,0.276,0.879,-0.0449,1.53,0.105,-0.0273,-0.0744,0.176
GCCCGTG,-0.132,-0.158,-0.441,-0.334,-0.0816,-0.803,-0.0427,-0.0678,-0.0492,-0.162
GGTTTAG,-0.0273,-0.0403,-0.266,-0.0554,-0.0401,-0.483,0.0726,0.0731,0.0381,-0.0486
TCTACGA,-0.0442,-0.104,0.123,-0.698,-0.112,-0.539,0.0364,-0.0201,-0.0786,-0.0638
TCGAATG,-0.123,-0.0947,-0.103,0.562,-0.162,1.54,-0.0257,-0.0901,-0.129,-0.193
GGAATAT,0.106,0.288,0.968,2.01,0.0815,2.24,0.244,0.143,0.202,0.247
CGCCTCA,0.0872,0.0175,0.0713,-0.413,0.0485,-0.0706,-0.0506,-0.0292,0.111,0.0881
TGTTAAG,-0.00806,0.0723,-0.714,-0.489,0.0644,-1.1,0.16,-0.0115,0.147,-0.00783
ACTCTGA,-0.0837,-0.0174,-0.1,-0.0785,0.0321,-0.429,0.0522,0.114,0.0396,0.00717
CCTCGAG,-0.00695,0.0785,-0.149,0.0603,0.0675,-0.671,0.0962,0.0367,-0.0519,0.078
TCGGACA,-0.0258,-0.0475,0.681,1.44,-0.0973,1.87,0.156,-0.0436,0.0239,0.153
TGAACGA,-0.0108,0.096,-0.00349,-0.121,-0.0408,-0.718,0.0698,-0.0648,0.0159,0.0776
GTACACG,-0.0286,-0.0979,-0.684,-0.694,-0.0449,-0.843,0.109,-0.0313,0.00859,-0.166
AACCTTG,-0.00362,0.0156,-0.349,-1.67,0.0472,-0.894,-0.0885,0.0124,-0.0161,0.0647
CTTGACC,-0.0884,-0.155,-0.0544,-1.05,-0.0404,0.273,-0.115,-0.122,-0.117,-0.0403
CTATGGG,0.0438,0.0965,-0.503,-0.317,0.0478,-1.05,0.185,0.139,0.0836,-0.192
TCTGTAC,0.106,-0.113,-0.00223,-0.503,-0.0273,-0.346,0.0993,0.00586,-0.122,0.00104
TGAGCAA,0.0264,-0.00905,0.0441,0.235,0.0316,-0.1,-0.743,-0.0499,-0.00714,0.0149

Sequence,uncleaved DNA left (log2) [1],uncleaved DNA left (log2) [2],uncleaved DNA left (log2) [3],uncleaved DNA left (log2) [4],uncleaved DNA left (log2) [5],uncleaved DNA left (log2) [6],uncleaved DNA left (log2) [7],uncleaved DNA left (log2) [8],uncleaved DNA left (log2) [9],uncleaved DNA left (log2) [10]
GGCGCTT,0.0596,0.0896,0.405,0.993,-0.000537,1.83,-0.0426,-8.96e-06,-0.00336,0.00597
ATACTAC,-2.64,-0.101,-0.684,-2.75,-0.0359,-1.09,-2.06,-0.249,-0.0399,-0.172
AGACGGA,0.0236,0.0742,0.277,0.75,0.000274,0.884,0.15,0.188,0.0653,0.0548
TTGGGGT,0.0575,-0.0477,0.124,0.939,-0.111,1.26,0.172,-0.0674,-0.168,-0.0615
CTTTGAA,0.029,0.0104,-0.162,-0.746,-0.0196,-1.07,-0.0556,0.0276,-0.0588,-0.0447
GAGGGTC,0.0181,0.0822,0.499,0.731,-0.0404,1.66,0.134,0.0994,0.0676,0.0411
ATTTTTC,0.0377,0.00333,0.0512,-0.171,0.0643,-0.827,-0.0206,0.0924,0.00925,0.0263
AAGAGGT,0.0287,0.0528,0.311,1.49,0.0499,1.82,-0.193,0.0692,-0.143,0.0997
ATGGAGG,0.116,-0.0305,0.101,0.528,0.0857,-0.1,0.145,0.109,-0.0698,0.0431
TCCACGG,0.0109,0.101,0.546,1.55,0.0326,2.09,0.054,0.164,-0.094,-0.0501
CATGGCA,-0.104,-0.0553,-0.619,-0.776,-0.0519,-1.22,-0.00629,-0.181,-0.0672,-0.103
CTTACCC,-0.258,0.0473,-0.224,-2.52,0.0251,-0.554,-1.17,-0.0796,-0.105,0.0547
CAGTTTT,-3.38,-3.48,-1.63,-3.15,-3.12,-0.539,-4.46,-0.575,0.0594,-0.387
ACTCCCG,-0.0257,0.0544,-0.595,0.317,-0.027,-0.673,0.058,0.0912,0.0513,0.0752
ACGAACA,-0.0763,0.00634,-0.3,-1.63,0.0736,-0.698,-0.106,0.02,-0.18,-0.0441
GGCGCGT,0.0527,-0.0502,0.275,0.648,0.00278,0.789,0.209,-7.57e-05,-0.0779,0.0269
TACTAAT,-3.79,-3.23,-3.14,-3.25,-0.414,-0.769,-4.08,-0.933,-0.0418,-0.668
ACTTAAT,-1.34,-0.388,-0.267,-1.2,-0.0497,-0.808,-3.22,0.0864,-0.103,-0.00302
AGCTCAC,0.0359,-0.0456,-0.102,0.00523,-0.168,-0.271,-0.261,-0.0682,-0.0966,0.038
GATTGCG,-0.186,-0.0604,0.489,1.2,-0.0553,1.92,-0.0314,-0.167,-0.238,-0.0329

Sequence,uncleaved DNA left (log2) [1],uncleaved DNA left (log2) [2],uncleaved DNA left (log2) [3],uncleaved DNA left (log2) [4],uncleaved DNA left (log2) [5],uncleaved DNA left (log2) [6],uncleaved DNA left (log2) [7],uncleaved DNA left (log2) [8],uncleaved DNA left (log2) [9],uncleaved DNA left (log2) [10]
AACCTAC,0.174,0.0834,-0.205,-2.11,0.00693,-0.649,-0.129,0.0359,0.0613,0.124
GAAAACG,0.0342,-0.0458,-0.764,-0.404,0.0162,-0.947,0.141,-0.0245,0.0192,-0.0637
AGCAAAC,-0.065,0.0666,0.0373,0.0516,0.0555,-0.0447,-0.0703,-0.013,-0.0232,0.0718
TCGCGTC,0.0334,-0.11,-0.647,-0.792,-0.0506,-0.964,-0.0333,-0.106,-0.127,-0.254
AGGAGTT,-0.00288,0.0446,0.162,0.557,-0.0595,1.36,-0.106,-0.00603,-0.0778,-0.0389
GGCAAGC,0.0479,0.0354,0.55,1.2,-0.116,1.55,0.196,0.0494,-0.113,-0.064
ACAGTGA,-0.0256,-0.109,-0.554,-0.735,-0.0577,-1.32,0.0243,0.07,-0.102,-0.108
TGGGCTC,0.193,0.17,0.858,1.72,0.127,2.19,0.27,0.0996,0.0876,0.151
CAATGGA,0.0865,0.0301,-0.184,-0.238,0.121,-0.819,-0.225,0.0223,0.0841,0.08
CGGTATA,0.0221,-0.0328,0.0789,-0.357,-0.00547,0.355,-0.0518,-0.0166,0.0999,0.101
TGGAGGT,0.0945,-0.0101,0.386,1.15,-0.012,1.51,0.116,0.0586,-0.102,0.048
GATAGTA,-0.0388,0.0972,0.284,-0.0146,0.105,0.733,-0.0391,0.14,0.143,0.183
TTGGGCG,-0.00306,-0.0794,-0.694,0.49,0.0454,-0.737,0.115,-0.0558,-0.00645,-0.168
GGGCTGC,-0.00592,0.157,0.766,1.81,-0.0824,2.15,0.103,0.07,-0.0925,0.153
GGGATCA,0.0697,0.136,0.88,2,-0.0418,2.21,0.139,-0.0315,0.037,0.137
CTGTGGG,0.0959,-0.0751,-0.592,-0.569,0.0399,-1.03,0.137,-0.0666,-0.0599,-0.0429
CAGTGCA,0.0427,-0.0806,-0.598,-0.901,-0.0425,-1.12,-2.44,0.0241,0.211,-0.0682
AATACCA,-0.0339,0.0467,-0.0504,-1.91,-0.0717,0.0646,-0.332,-0.0842,-0.0271,0.0644
ATGCGGT,0.0704,-0.0645,-0.394,-0.325,0.0343,-0.626,0.0618,-0.111,0.00985,-0.112
CCAAGTA,0.00337,0.000659,-0.125,-0.532,0.0925,-0.179,0.0659,0.00875,-0.0604,-0.0268
